Test results: PubChem BioAssay AID445 (National Center for Advancing Translational Sciences (NCATS), 2006)
Screen size: about 110,000 compounds; about 40 (0.04%) were called active. Inconclusive means that the source gave no clear call. Such entries were picked first, then a sample of the others. Calls come from the whole dose curve; as a rule, active = well fitted curve in the direction sought with a large enough effect in the signal ratio (not every such curve was filed as active); inconclusive = small, poorly fitted or top-dose-only effect, or a change in a side signal; inactive = flat fitted curve, though single readings scatter; the % refers to the signal ratio. A potency beside an inconclusive call is a rough fit, not a confirmed value.

Assay: IkB Signaling;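 for IkBa stabilization activation: 0% = basal untreated cells and 100% = reference inhibitor full response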
Conditions: ABC-DLBCL IkBa-CBG/CBR dual luciferase ratio (green luciferase fused to IkBa over red control in OCI-Ly3 lymphoma cells), 4 h; IkBa stabilization activation: at 57.1 µM (top of the series), scaled: untreated 0%, proteasome inhibitor 100% unless noted
Outline: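 Curves were fitted separately to fusion (green), unfused (red) and ratio luminescence, then classed by r2, magnitude and activity. Cells: OCI-Ly3, 4 h compound plus doxycycline at 37C; 10 uM MG-132 defined full response.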
Potency is the fitted concentration of half-maximal effect.

Row | SMILES | IkBa stabilization activation | Potency
1 | Cc1cccc(NC(=O)c2cc3n(n2)C(C(F)(F)F)CC(c2ccc4c(c2)OCO4)N3)c1 (configuration not stated) | inconclusive: 0.736% [signal inhibitor] | 
2 | Nc1sc2c(c1C(=O)NC1CCS(=O)(=O)C1)CCCC2 (configuration not stated) | inconclusive: 13.9% [signal inhibitor] | 
3 | Cn1c(=O)[nH]c(=O)c2c1ncn2CCN1CCCCC1 | inactive: 1.02% | 
4 | Cc1ccc(C(=O)c2c(N)c(C(=O)Nc3ccccc3Cl)c3ccccn23)cc1 | inconclusive: -1.32% [signal inhibitor] | 
5 | Cc1ccc(CCNC(=O)c2ccc3c(c2)nc2n3CCCCC2)cc1 | inconclusive: 0.862% [signal inhibitor] | 
6 | COc1cccc(NC(=O)c2ccc(CN3CCOCC3)cc2)c1 | inconclusive: 3.22% [signal inhibitor] | 
7 | Cc1sc2ncn(CC(=O)Nc3cccc(C(F)(F)F)c3)c(=O)c2c1S(=O)(=O)N1CCN(C)CC1 | inconclusive: 5.22% [signal inhibitor] | 
8 | CC1=C(C(=O)Nc2ccc(C)cc2C)C(c2ccc([N+](=O)[O-])cc2)n2ncc(C(=O)Nc3ccc(F)cc3)c2N1 (configuration not stated) | inconclusive: 15.2% [signal inhibitor] | 
9 | Cc1ccccc1Cc1c(C)nc2nc(SCC(=O)N(C)c3ccccc3)nn2c1C | inconclusive: 3.17% [signal inhibitor] | 
10 | Cc1c(C(=O)N2CCC(C)CC2)c(S(=O)(=O)NCc2ccc(Cl)cc2)c(C)n1C | inconclusive: 2.28% [signal inhibitor] | 
11 | CN(c1ccc(F)cc1)S(=O)(=O)N1CCCC(C(=O)NCc2cccc(Br)c2)C1 (configuration not stated) | inconclusive: -2.08% [signal inhibitor] | 
12 | Cc1ccsc1C(=O)OCC(=O)c1cc(C)n(CC2CCCO2)c1C (configuration not stated) | inconclusive: 6.03% [signal inhibitor] | 
13 | CCN(CC)c1ccc2cc(-c3nc(-c4cccs4)no3)c(=O)oc2c1 |  | inconclusive: 0.631 µM [signal inhibitor]
14 | CCCCn1c(-c2ccccc2)nnc1-c1ccccc1 | inactive: -0.608% | 
15 | CC1=c2c(oc3cc(O)c(Nc4c(C)cc(O)cc4O)c(C)c23)=CC(=O)C1=Nc1c(C)cc(O)cc1O | inactive: 1.17% [at 11.4 µM, scaled: untreated 0%, proteasome inhibitor 100%] | 
16 | Cc1ccc(NC(=O)c2cnc(SCC(=O)N3CCOCC3)n(C)c2=O)cc1C | inconclusive: 15.3% | 
17 | CC1CCN(C(=O)c2ccc3c(c2)N(Cc2ccccc2)C(=O)c2ccccc2S3(=O)=O)CC1 | inconclusive: 1.19% [signal inhibitor] | 
18 | CSc1cc2c(cc1C(F)(F)F)N(C(=O)Nc1cccnc1)CC2 | inactive: 0.247% | 
19 | CCCc1cc(-c2n[nH]c(C)c2-c2ccc(C(=O)OCC)o2)c(O)cc1O | inconclusive: -0.364% [signal inhibitor] | 
20 | CCn1c(=O)c(C(=O)Nn2c(C)nc3ccccc3c2=O)c(O)c2ccccc21 | inconclusive: 2.81% [signal inhibitor] | 
21 | Cc1cccc(N2CCN(C(=O)c3ccc4c(Cl)c5c(nc4c3)CCCC5)CC2C)c1 (configuration not stated) | inconclusive: 1.21% [signal inhibitor] | 
22 | COc1ccc(NC(=O)c2cc3n(n2)C(C(F)(F)F)CC(c2ccc4c(c2)OCO4)N3)cc1OC (configuration not stated) | inconclusive: -1.72% [signal inhibitor] | 
23 | O=S(=O)(C[C@H](O)C(Cl)(Cl)Cl)NNc1ccccc1 | inactive: 3.65% [at 11.4 µM, scaled: untreated 0%, proteasome inhibitor 100%] | 

Row | SMILES | IkBa stabilization activation | Potency
24 | CCOc1ccc(C(=O)c2cn(CC(=O)Nc3ccc4c(c3)OCCO4)c3ccc(F)cc3c2=O)cc1 | inactive: -0.55% | 
25 | CN(C(=O)CSc1nc(C2CCCC2)nc2c1c(=O)n(C)c(=O)n2C)c1ccccc1 | inconclusive: 2.32% [signal inhibitor] | 
26 | O=C(Cn1ncc2c1-c1ccccc1OC2)N1CCN(Cc2ccc3c(c2)OCO3)CC1 | inconclusive: 7.97% [signal inhibitor] | 
27 | COc1ccc2c(c1)c(CC(=O)Nc1ccc(C(C)=O)cc1)c(C)n2C(=O)c1ccc(Cl)cc1 | inconclusive: 9.76% [signal inhibitor] | 
28 | COc1ccc(S(=O)(=O)NCCS(=O)(=O)N2CCN(c3ccccc3)CC2)cc1OC | inconclusive: -2.62% [signal inhibitor] | 
29 | Cc1ccc(NC(=O)c2oc3ccccc3c2NC(=O)c2ccc(F)c(F)c2)cc1 | inconclusive: 0.547% [signal inhibitor] | 
30 | CCc1cccc(CC)c1NC(=O)C(Cc1ccccc1)NS(=O)(=O)c1cccc2nsnc12 (configuration not stated) | inconclusive: 2.52% [signal inhibitor] | 
31 | Cc1ccc(CNC(=O)CCCCCn2c(=O)c3sccc3n(CC(=O)Nc3ccc(C)c(F)c3)c2=O)cc1 | inconclusive: 1.65% [signal inhibitor] | 
32 | CCc1cnc2c(c1SCc1ccccc1C)c(=O)n(C)c(=O)n2C | inactive: 1.58% | 
33 | COc1cccc(C(=O)NC(=NCCc2c[nH]c3ccc(OC)cc23)Nc2nc(C)cc(C)n2)c1 | inconclusive: -1.65% [signal inhibitor] | 
34 | CCN1C(C(=O)c2ccccc2)=C(OC(=O)COc2ccc(OC)cc2)c2ccccc2S1(=O)=O | inconclusive: 4.51% [signal inhibitor] | 
35 | Cc1cccc(C)c1NC(=O)CSc1nnc(-c2ccoc2C)n1C | inactive: 0.543% | 
36 | O=C(Nc1ccc(-c2nc3ccccc3o2)c(O)c1)c1cc(-n2cnnc2)ccc1Cl | inconclusive: 4.96% [signal inhibitor] | 
37 | O=C(NCc1ccccc1Cl)c1cnc(N2CCOCC2)c2ccccc12 | inconclusive: 3.36% [signal inhibitor] | 
38 | COC(=O)c1ccccc1NC(=O)c1ccco1 | inactive: -2.74% | 
39 | Cc1ccc(C)c(N2CCN(C(=O)CCNS(=O)(=O)c3ccc4c(c3)CCN4C(=O)C3CC3)CC2)c1 | inconclusive: 13.8% [signal inhibitor] | 
40 | COc1ccc(OC)c(NC(=O)CC2C(=O)NCCN2C(=O)C(F)(F)F)c1 (configuration not stated) | inactive: -0.815% | 
41 | COc1ccc(S(=O)(=O)N2CN(Cc3ccco3)c3nc4ccccc4nc32)cc1 |  | inconclusive: 15.8 µM [signal inhibitor, partial curve]
42 | COc1ccc(Br)cc1C(=O)Nc1cccc(NC(=O)c2ccco2)c1 | inconclusive: 1.78% [signal inhibitor] | 
43 | Cc1cccc(NC(=O)c2ccc3c(O)c(S(=O)(=O)c4ccccc4)c(=O)[nH]c3c2)c1C | inactive: -1.5% | 
44 | COc1ccc(Cl)cc1NC(=O)CSc1nc2ccccc2c2nc(-c3ccccc3)nn12 | inactive: 0.00394% | 
45 | O=C(Nc1ccc2nc(SCC(=O)N3CCc4ccccc43)sc2c1)c1cccc(F)c1 | inactive: -0.105% | 
46 | COc1ccc2[nH]c(=O)c(CN(C(=O)c3cccnc3)c3ccccc3OC)cc2c1 | inactive: -0.987% | 

Row | SMILES | IkBa stabilization activation | Potency
47 | Cc1ccc(C(=O)N2CCc3cc(CNC(=O)c4ccc(Br)cc4)ccc32)cc1 | inconclusive: -4.14% [signal inhibitor] | 
48 | FC(F)(F)c1cc(-c2ccccc2)nc(NCC2CCCO2)n1 (configuration not stated) | inconclusive: 3.09% [signal inhibitor] | 
49 | O=C(NC1CCCCC1)C(c1ccco1)N(Cc1cccnc1)C(=O)C1COc2ccccc2O1 (configuration not stated) | inactive: -0.236% | 
50 | COc1nc(Nc2ccc(OC)c(Cl)c2)nc(OC)n1 | inactive: -3.92% | 
51 | O=S(=O)(c1ccc(-c2cc(C(F)(F)F)on2)s1)N1CCN(c2ccccc2)CC1 | inactive: -3.51% | 
52 | COc1ccccc1C(=O)Nc1cccc(-c2cn3ccsc3n2)c1 | inconclusive: -0.589% [signal inhibitor] | 
53 | COc1ccc(S(=O)(=O)N2CCN(Cc3ccc4c(c3)OCO4)CC2)cc1C | inconclusive: 4.98% [signal inhibitor] | 
54 | CCOC(=O)c1cnc2c(Cl)cc(Cl)cc2c1Nc1cc(C(=O)O)ccc1C | inconclusive: 8.23% [signal inhibitor] | 
55 | Cc1cccc(C)c1NC(=O)C(=O)NCC(c1ccc2c(c1)OCO2)N1CCOCC1 (configuration not stated) | inactive: 0.375% | 
56 | C=CCn1c(=O)/c(=C/c2cc(OC)c(OC)c(OC)c2)s/c1=C(/C#N)c1nc2ccccc2n1C | inactive: -0.985% | 
57 | COc1ccc(Oc2ncc3ncc(=O)n(Cc4cccc(OC)c4)c3n2)cc1 | inactive: 4.73% [at 11.4 µM, scaled: untreated 0%, proteasome inhibitor 100%] | 
58 | CCOc1ccc2c(c1)sc1nc(=O)n(-c3ccc(Cl)c(Cl)c3)c(=O)n12 |  | inconclusive: 31.6 µM [signal activator]
59 | Cc1ccc(OCc2nc(-c3ccc(C(=O)N4CCN(c5cccc(C(F)(F)F)c5)CC4)cc3)oc2C)cc1 | inconclusive: 2.01% [signal inhibitor] | 
60 | CCOC(=O)CCn1cnc2onc(-c3cc(OC)ccc3Cl)c2c1=O | inconclusive: 1.29% [signal inhibitor] | 
61 | COc1ccc(N(CC(C)C)S(=O)(=O)c2nnc(NC(=O)c3cccs3)s2)cc1 | inconclusive: -5.53% [signal inhibitor] | 
62 | Cc1ccc(-n2ncc(C(=O)NCCN3CCCC3)c2C2CCN(C(=O)OC(C)(C)C)CC2)cc1 | inactive: -0.742% | 
63 | C/C=C/c1ccc(Oc2nnnn2-c2ccc(C(=O)O)cc2)c(OC)c1 | inconclusive: 5.45% [signal inhibitor] | 
64 | Cc1cccc(-n2ncc(C(=O)N3CCN(Cc4ccccc4)CC3)c2C2CCN(C(=O)OC(C)(C)C)CC2)c1 | inconclusive: -0.0726% [signal inhibitor] | 
65 | Cc1ccc(NC(=O)Cn2nnc3sc4c(c3c2=O)CCC(C)C4)cc1 (configuration not stated) | inactive: -2.75% | 
66 | CCn1c(CNC(C)=O)nnc1SCC(=O)c1ccc(Br)cc1 |  | inconclusive: 39.8 µM [rising, single point]
67 | COc1ccc(Cn2c(CCC(=O)Nc3ccc(C)cc3)nc3cccnc32)cc1 | inactive: -0.166% | 
